# Results from PubChem BioAssay (NCATS).
# Inconclusive means that the source gave no clear call. Such entries were picked first, then a sample of the others. For some assays here: Potencies beside an inconclusive call are fits to weak or partial responses and may not hold up. Active and inactive are the calls of the source. Unless noted, calls come from the whole dose curve; as a rule, active = well fitted curve in the direction sought with a large enough effect; inconclusive = small, poorly fitted or top-dose-only effect, or another doubt; inactive = no such curve, though single readings can be large; an effect the other way counts as inactive or inconclusive.
# Assays:
# [1] = qHTS for Inhibitors of Plasmodium falciparum (CP250) proliferation (AID 504320);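 note: plate controls were DMSO vehicle for no effect and 0.29 µM artemisinin control for full effect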; details: P. falciparum CP250 in erythrocytes, SYBR Green DNA, 72 h; at 6.7 µM (top of the series)
# Summary of the method: (§1)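 Erythrocytes infected with P. falciparum line (0.3% parasitemia, 2.5% hematocrit final) incubated with compounds 72 h at 37 °C, 5% CO2; SYBR Green lysis buffer added, fluorescence read next day. Normalized to 0.29 uM artemisinin and DMSO.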
# [2] = target: Rap guanine nucleotide exchange factor 3 (Homo sapiens) (UniProt O95398); experiment: Confirmatory qHTS for antagonist of cAMP-regulated guanine nucleotide exchange factor 3 (EPAC1) (AID 1645880); details: EPAC1 Rap1B-BODIPY-GDP exchange, fluorescence; activity, negative = inhibition: at 115 µM (top of the series); note: potency is the fitted concentration of half-maximal effect; nearly all actives have a fitted effect of over 55% in size
# Sequence of UniProt O95398 (O95398 whole entry, looked up): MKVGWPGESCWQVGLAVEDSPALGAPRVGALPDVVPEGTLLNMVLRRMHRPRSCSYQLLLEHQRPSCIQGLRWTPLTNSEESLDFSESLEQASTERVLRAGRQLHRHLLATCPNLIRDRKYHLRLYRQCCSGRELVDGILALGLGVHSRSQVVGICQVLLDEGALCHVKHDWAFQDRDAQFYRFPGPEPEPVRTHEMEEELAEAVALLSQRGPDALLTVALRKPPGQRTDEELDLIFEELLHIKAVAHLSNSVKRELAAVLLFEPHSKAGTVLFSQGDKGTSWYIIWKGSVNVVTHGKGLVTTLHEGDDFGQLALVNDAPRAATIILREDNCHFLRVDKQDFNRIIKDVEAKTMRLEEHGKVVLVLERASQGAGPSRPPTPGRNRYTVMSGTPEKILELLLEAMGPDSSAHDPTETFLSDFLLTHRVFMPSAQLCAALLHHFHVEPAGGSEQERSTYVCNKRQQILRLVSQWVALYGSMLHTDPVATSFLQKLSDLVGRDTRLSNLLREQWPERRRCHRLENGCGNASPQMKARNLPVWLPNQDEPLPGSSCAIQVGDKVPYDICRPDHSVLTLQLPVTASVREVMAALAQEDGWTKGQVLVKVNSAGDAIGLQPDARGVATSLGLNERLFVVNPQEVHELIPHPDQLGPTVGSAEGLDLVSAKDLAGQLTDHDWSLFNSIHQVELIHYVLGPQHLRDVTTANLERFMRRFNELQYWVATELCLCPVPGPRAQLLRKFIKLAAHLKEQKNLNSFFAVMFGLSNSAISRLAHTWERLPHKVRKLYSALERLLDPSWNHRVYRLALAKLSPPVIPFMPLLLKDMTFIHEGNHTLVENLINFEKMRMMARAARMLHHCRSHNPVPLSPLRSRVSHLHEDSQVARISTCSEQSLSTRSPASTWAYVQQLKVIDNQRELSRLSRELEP
# Summary of the method: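 Nucleotide exchange uses 100 nM EPAC1, 250 nM RAP1B-BODIPY-GDP and 50 uM GDP, with compounds in a concentration-titration series. After 5 min at room temperature, fluorescence (480 nm ex/540 nm em) is read every 5 min for 30 min. Data are normalized to control ATA and DMSO.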
# [3] = target: Rap guanine nucleotide exchange factor 3 (Homo sapiens) (UniProt O95398); experiment: Counterscreen qHTS for agonist of cAMP-regulated guanine nucleotide exchange factor 3 (EPAC1) (AID 1645889); details: EPAC1 Rap1B-BODIPY-GDP exchange, fluorescence; activation: at 154 µM (top of the series) unless noted; note: nearly all actives have a fitted effect of over 40% in size; note: potency is the fitted concentration of half-maximal effect; for activation: % of control where 0% means no effect
# Summary of the method: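 Rap1B–BODIPY-GDP (250 nM) with 50 uM GDP; compounds pin-transferred to 9.74 nM–152 uM final (activator) or from 7.32 nM upwards (inhibitor). Fluorescence Ex/Em 480/540 nm read at 5 and 30 min, then after adding cAMP or buffer, at room temperature.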
# [4] = target: DNA repair nuclease/redox regulator APEX1 (Homo sapiens) (UniProt P27695); experiment: Confirmation qHTS Assay for Inhibitors of the Human Apurinic/apyrimidinic Endonuclease 1 (APE1) (AID 2572); note: potency is the fitted concentration of half-maximal effect; nearly all actives have a fitted effect of over 30% in size
# Sequence of UniProt P27695 (P27695 whole entry, looked up): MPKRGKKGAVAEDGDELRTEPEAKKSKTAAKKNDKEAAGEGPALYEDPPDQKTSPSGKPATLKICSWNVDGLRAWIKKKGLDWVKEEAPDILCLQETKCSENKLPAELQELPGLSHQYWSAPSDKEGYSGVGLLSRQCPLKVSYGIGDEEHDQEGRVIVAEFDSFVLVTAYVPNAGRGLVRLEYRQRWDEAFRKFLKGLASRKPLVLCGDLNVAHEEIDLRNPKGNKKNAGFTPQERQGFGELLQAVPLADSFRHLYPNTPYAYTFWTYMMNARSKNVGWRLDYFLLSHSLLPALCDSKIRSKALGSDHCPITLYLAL
# Summary of the method: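 Enzyme preincubated 15 min at room temperature with compound; reaction started with 50 nM final double-stranded THF abasic-site substrate (5'-TAMRA, 3'-BHQ-2). Fluorescence read kinetically (525/598 nm); third-minus-first read difference gives reaction progress.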
# [5] = target: DNA repair nuclease/redox regulator APEX1 (Homo sapiens) (UniProt P27695); experiment: qHTS FP-Based Assay for Inhibitors of the Human Apurinic/apyrimidinic Endonuclease 1 (APE1) (AID 2573); note: potency is the fitted concentration of half-maximal effect; for activity, negative = inhibition: % is set by controls: 0 for no effect and ±100 for the full control effect
# [6] = qHTS for Inhibitors of Plasmodium falciparum (DD2) proliferation (AID 504314); note: potency is the fitted concentration of half-maximal effect; details: P. falciparum Dd2 in erythrocytes, SYBR Green growth, 72 h
# Summary of the method: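 Quantitative HTS growth inhibition: SYBR Green I binding to parasite DNA after 72 h drug exposure of infected erythrocytes (0.3% parasitemia, 2.5% hematocrit). Signals normalized per plate to inhibitor and vehicle wells.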
# [7] = qHTS for Inhibitors of Plasmodium falciparum (7G8) proliferation (AID 504316); note: nearly all actives have a fitted effect of over 65% in size; note: potency is the fitted concentration of half-maximal effect;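 for activity change, negative = inhibition: 0% = DMSO vehicle and -100% = 0.29 µM artemisinin full kill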
# Summary of the method: as §1
# [8] = qHTS for Inhibitors of Plasmodium falciparum (HB3) proliferation (AID 504318); note: potency is the fitted concentration of half-maximal effect; nearly all actives have a fitted effect of over 60% in size; details: P. falciparum HB3 in erythrocytes, SYBR Green DNA, 72 h
# Summary of the method: as §1
# [9] = AP1 Signaling Pathway (AID 357; active = well fitted curve in either direction with a large enough effect, not every such curve was filed as active; inconclusive = small, poorly fitted or top-dose-only effect, or another doubt; note: top concentration of the series differs between compounds; % is set by controls: 0 for no effect and ±100 for the full control effect); details: ME-180 AP-1-bla reporter, EGF-induced, beta-lactamase ratio, 5 h; at 7.69 µM (top of the series) unless noted
# Summary of the method: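 ME-180 cells with beta-lactamase reporter under AP-1 response element, stimulated with EC50 EGF; compounds tested in titration series, 5 h at 37 °C. CCF4 substrate added 2.5 h at room temperature; 460/530 nm emission ratio gave %activity and AC50.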
# [10] = NFAT Signaling Pathway (AID 444; active = well fitted curve in either direction with a large enough effect, not every such curve was filed as active; inconclusive = small, poorly fitted or top-dose-only effect, or another doubt;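 note: carbachol stimulus at about its EC50 of 1 µM final; % is set by controls: 0 for no effect and ±100 for the full control effect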); details: Jurkat NFAT-bla M1, carbachol, beta-lactamase ratio, 5 h; at 7.69 µM (top of the series) unless noted
# Summary of the method: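 Jurkat cells with NFAT-driven β-lactamase reporter and co-expressed M1 receptor, stimulated with carbachol (final 1 uM, ~EC50), compound titration, 5 h at 37 °C. CCF4 loaded 1 h at RT; 460/530 nm ratio gave %activity and AC50.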
# [11] = target: Cytochrome P450 1A2 (Homo sapiens) (UniProt P05177); experiment: p450-cyp1a2 (AID 410; calls by dose curve; note: potency is the fitted concentration of half-maximal effect)
# Summary of the method: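 20nM CYP1A2 with 100uM Luciferin-ME (at Km) in 100mM KPO4; compound preincubated 10 min, NADPH regeneration added, 60 min at room temperature. Luciferin quantified by luminescence after detection reagent; normalized to 57 uM furafylline.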
# [12] = target: Mitogen-activated protein kinase 10 (Mus musculus) (UniProt Q61831); experiment: JNK3 AlphaScreen Assay (AID 530; active = well fitted curve in either direction with a large enough effect, not every such curve was filed as active; inconclusive = small, poorly fitted or top-dose-only effect, or another doubt;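 note: kinase came from lysate of stimulated human HepG2 cells; signal reports phosphorylation of biotinylated GST-cJun 1-79 at Ser73 with 10 µM ATP; potency is the fitted concentration of half-maximal effect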); details: JNK3 lysate, c-Jun phosphorylation; activity change, negative = inhibition: at 57.1 µM (top of the series)
# Summary of the method: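 Pre-activated (IL-1β/TNFα) JNK3 in HepG2 lysates phosphorylates biotin-GST-cJun(1-79), 10 uM ATP; anti-phospho-cJun(Ser73) AlphaScreen read at room temperature, pH 7.6 Tris buffer. Compounds pre-incubated 15 min as titrations.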
# [13] = target: Cytochrome P450 2D6 (Homo sapiens) (UniProt P10635); experiment: qHTS Assay for Inhibitors and Substrates of Cytochrome P450 2D6 (AID 891);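 note: luciferin methyl ether substrate demethylated by CYP2D6 with NADPH regeneration; top concentration of the series differs between compounds; % is set by controls: 0 for no effect and ±100 for the full control effect; nearly all actives have a fitted effect of over 60% in size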
# Summary of the method: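 Human CYP2D6 (5 nM) with 30 uM Luciferin-ME EGE (at Km) in 100 mM KPO4, compound preincubated 10 min, then NADPH regeneration system for 60 min at room temperature. Luciferin read by luminescence; normalized to 1.43 uM quinidine.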
# [14] = target: Tyrosyl-DNA phosphodiesterase 1 (Homo sapiens) (UniProt Q9NUW8); experiment: Confirmation Assay for Inhibitors of Tyrosyl-DNA Phosphodiesterase (TDP1) (AID 489007); details: recombinant human TDP1 enzymatic activity, dose-response; note: potency is the fitted concentration of half-maximal effect; nearly all actives have a fitted effect of over 40% in size
# Summary of the method: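 Recombinant human Tdp1 (1 nM final), expressed in E. coli, preincubated 15 min with compound. Then 15 nM 5'-biotin/3'-phosphotyrosine-FITC DNA substrate added for 5 min at room temperature. AlphaScreen beads (10 ug/ml) added for 10 min; cleavage gives signal loss.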
# [15] = target: DNA polymerase iota (Homo sapiens) (UniProt Q9UNA4); experiment: qHTS for Inhibitors of Polymerase Iota: Confirmatory Assay for Cherry-picked Compounds (AID 720496); details: Pol iota primer extension, TAMRA/BHQ fluorescence; note: potency is the fitted concentration of half-maximal effect
# Sequence of UniProt Q9UNA4 (Q9UNA4 whole entry, looked up): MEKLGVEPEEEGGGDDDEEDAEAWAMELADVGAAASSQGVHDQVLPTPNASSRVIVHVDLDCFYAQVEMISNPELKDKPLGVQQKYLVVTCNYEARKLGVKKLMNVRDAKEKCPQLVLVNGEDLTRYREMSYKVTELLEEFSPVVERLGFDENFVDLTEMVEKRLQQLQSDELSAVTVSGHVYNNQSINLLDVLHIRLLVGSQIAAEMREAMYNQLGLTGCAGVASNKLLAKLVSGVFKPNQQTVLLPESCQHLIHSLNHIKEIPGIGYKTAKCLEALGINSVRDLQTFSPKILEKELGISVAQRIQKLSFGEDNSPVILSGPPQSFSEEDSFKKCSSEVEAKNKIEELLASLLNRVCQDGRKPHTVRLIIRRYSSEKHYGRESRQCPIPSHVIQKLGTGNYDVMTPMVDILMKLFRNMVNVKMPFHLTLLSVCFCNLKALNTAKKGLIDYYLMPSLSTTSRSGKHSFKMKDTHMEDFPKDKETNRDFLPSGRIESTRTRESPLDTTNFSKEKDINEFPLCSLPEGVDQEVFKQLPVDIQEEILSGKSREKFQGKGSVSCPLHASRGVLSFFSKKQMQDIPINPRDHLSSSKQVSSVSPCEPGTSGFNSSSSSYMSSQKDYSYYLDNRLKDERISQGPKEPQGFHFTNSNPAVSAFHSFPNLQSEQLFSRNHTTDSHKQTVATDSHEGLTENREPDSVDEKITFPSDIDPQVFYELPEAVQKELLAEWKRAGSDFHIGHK
# Summary of the method: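 Buffer-only wells, without enzyme, serve as negative control. Test wells hold 10 nM Pol iota preincubated 15 min with compound before 50 nM final fluorogenic DNA substrate is added; signal is read at 0 and 10 min.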
# [16] = target: DNA polymerase eta (Homo sapiens) (UniProt Q9Y253); experiment: qHTS for Inhibitors of Polymerase Eta: Confirmatory Assay for Cherry-picked Compounds (AID 720502); details: Pol eta primer extension, TAMRA/BHQ fluorescence, 10 min; note: potency is the fitted concentration of half-maximal effect
# Sequence of UniProt Q9Y253 (Q9Y253 whole entry, looked up): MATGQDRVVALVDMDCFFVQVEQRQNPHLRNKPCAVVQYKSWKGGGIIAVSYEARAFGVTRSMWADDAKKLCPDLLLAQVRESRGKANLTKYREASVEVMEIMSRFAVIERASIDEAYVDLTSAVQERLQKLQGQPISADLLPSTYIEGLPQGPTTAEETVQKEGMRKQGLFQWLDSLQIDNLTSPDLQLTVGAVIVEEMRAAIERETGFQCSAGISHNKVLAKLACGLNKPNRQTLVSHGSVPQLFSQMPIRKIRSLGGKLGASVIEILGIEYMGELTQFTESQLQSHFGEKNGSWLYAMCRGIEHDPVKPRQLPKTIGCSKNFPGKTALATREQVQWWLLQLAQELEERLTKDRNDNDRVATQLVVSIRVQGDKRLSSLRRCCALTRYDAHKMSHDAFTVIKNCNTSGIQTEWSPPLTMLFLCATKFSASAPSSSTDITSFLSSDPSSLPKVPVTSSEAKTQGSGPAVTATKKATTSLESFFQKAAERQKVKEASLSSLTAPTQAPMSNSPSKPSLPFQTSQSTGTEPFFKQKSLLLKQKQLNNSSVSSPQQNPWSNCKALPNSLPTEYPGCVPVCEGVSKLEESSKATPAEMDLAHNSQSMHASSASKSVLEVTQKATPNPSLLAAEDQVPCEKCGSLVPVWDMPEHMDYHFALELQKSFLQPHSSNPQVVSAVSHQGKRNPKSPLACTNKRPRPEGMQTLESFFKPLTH
# Summary of the method: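 Human Pol eta (10 nM) was preincubated with compounds for 15 min at room temperature before adding 50 nM (final) DNA substrate: primer plus TAMRA reporter strand annealed to a BHQ-2-labeled template. Fluorescence (ex 525/em 598 nm) was read at 0 and 10 min.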
# [17] = target: RecQ-like DNA helicase BLM (Homo sapiens) (UniProt P54132); experiment: qHTS for Inhibitors of WRN Helicase: BLM Helicase Counterscreen for WRN Inhibitors (AID 720503); note: potency is the fitted concentration of half-maximal effect; nearly all actives have a fitted effect of over 60% in size
# Sequence of UniProt P54132 (P54132 whole entry, looked up): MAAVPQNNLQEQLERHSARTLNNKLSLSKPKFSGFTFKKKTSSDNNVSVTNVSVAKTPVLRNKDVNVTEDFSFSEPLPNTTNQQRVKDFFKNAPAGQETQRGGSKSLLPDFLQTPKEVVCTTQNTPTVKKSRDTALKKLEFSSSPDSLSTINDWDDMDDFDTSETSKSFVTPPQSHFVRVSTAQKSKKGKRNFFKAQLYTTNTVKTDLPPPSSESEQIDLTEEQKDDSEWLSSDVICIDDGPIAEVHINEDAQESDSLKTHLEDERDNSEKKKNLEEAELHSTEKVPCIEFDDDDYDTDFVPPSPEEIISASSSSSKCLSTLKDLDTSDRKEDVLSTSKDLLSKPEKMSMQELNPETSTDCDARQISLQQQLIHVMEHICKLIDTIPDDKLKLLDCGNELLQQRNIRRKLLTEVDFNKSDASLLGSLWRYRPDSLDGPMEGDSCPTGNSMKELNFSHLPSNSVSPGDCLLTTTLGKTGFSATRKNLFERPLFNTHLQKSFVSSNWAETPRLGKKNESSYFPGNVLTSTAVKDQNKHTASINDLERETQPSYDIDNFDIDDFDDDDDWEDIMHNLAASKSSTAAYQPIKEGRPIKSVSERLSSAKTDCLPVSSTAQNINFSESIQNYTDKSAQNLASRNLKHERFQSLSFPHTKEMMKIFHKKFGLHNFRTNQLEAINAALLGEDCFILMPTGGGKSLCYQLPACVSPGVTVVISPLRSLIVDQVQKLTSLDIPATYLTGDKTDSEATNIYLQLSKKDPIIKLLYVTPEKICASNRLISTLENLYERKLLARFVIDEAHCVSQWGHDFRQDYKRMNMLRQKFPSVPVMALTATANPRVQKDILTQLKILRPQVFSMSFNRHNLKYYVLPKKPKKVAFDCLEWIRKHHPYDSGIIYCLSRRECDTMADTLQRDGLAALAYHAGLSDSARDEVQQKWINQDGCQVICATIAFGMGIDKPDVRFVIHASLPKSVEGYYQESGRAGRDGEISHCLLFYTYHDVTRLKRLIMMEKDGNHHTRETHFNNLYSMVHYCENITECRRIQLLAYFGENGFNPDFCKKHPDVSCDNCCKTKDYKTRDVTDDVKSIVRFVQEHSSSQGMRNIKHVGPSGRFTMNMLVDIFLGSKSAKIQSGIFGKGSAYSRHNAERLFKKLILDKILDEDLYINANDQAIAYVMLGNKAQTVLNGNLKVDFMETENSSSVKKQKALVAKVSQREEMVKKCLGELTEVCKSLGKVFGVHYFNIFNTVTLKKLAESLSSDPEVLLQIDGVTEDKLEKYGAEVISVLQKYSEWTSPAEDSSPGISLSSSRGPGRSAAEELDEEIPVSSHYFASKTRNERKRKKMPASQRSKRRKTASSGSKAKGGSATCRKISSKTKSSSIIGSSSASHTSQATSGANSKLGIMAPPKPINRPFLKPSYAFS
# Summary of the method: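 1 nM BLM, Tris pH 8.0/NaCl/MgCl2/DTT/Tween-20; cpd preinc 15 min RT; start w/ 100 nM DNA + 2 mM ATP final; fluorescence (ex 525/em 598) two reads 15 min apart; normalized to enzyme-free and DMSO controls.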
# [18] = target: Lethal(3)malignant brain tumor-like protein 1 (Homo sapiens) (UniProt Q9Y468); experiment: qHTS Assay for the Inhibitors of L3MBTL1: Hit Validation (AID 540279); details: L3MBTL1 methyl-lysine binding inhibition, biochemical qHTS; note: potency is the fitted concentration of half-maximal effect; nearly all actives have a fitted effect of over 70% in size
# Sequence of UniProt Q9Y468 (Q9Y468 whole entry, looked up): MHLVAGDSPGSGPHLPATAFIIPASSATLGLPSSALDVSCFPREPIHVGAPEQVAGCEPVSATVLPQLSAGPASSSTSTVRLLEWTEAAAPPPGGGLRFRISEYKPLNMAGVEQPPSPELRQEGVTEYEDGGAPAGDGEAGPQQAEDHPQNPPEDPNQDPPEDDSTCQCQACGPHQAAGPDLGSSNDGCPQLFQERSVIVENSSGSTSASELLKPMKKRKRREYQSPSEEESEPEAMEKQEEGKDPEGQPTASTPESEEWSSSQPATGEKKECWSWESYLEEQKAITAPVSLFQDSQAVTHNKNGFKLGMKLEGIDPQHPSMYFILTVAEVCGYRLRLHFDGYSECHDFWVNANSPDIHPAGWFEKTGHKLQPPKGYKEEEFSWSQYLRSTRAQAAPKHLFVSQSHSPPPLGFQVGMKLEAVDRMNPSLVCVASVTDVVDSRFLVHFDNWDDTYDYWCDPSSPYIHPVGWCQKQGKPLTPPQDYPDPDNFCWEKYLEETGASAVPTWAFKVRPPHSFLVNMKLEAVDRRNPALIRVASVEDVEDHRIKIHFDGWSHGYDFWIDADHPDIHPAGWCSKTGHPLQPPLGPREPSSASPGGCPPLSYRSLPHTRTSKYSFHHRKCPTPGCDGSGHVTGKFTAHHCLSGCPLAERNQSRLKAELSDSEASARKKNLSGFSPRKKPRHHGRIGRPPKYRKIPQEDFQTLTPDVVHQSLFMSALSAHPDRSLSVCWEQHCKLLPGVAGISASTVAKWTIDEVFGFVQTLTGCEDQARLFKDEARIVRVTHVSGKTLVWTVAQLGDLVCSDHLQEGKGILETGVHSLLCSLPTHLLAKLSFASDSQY
# Summary of the method: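 L3MBTL1 (50 nM final) preformed 30 min with biotinylated H3(1-15)K9me1 peptide (75 nM), then compound 30 min at room temperature. Streptavidin donor and nickel chelate acceptor AlphaScreen beads (10 ug/mL each final) added for 30 min before read.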
# Tags give direction and shape of the fitted curve.
structure (smiles),measurement,setting,value
COC(=O)C1=C(C)N(Cc2ccccc2)C(=O)N[C@H]1c1cccc(C(F)(F)F)c1,"activity change, negative = inhibition",[1],inactive: 0.987%
same,Potency,[2],"inconclusive: 39.8 µM [inhibitor, partial curve]"
same,activation,[3],inactive: 10.2% [at 30.8 µM]
N#C/C(=C/c1cccn1-c1cccc(C(=O)O)c1)c1ccc(F)cc1,Potency,[4],"inconclusive: 1.58 µM [inhibitor, full curve, poor fit]"
same,Potency,[5],inactive
same,Potency,[2],"inconclusive: 50.1 µM [inhibitor, partial curve, poor fit]"
same,activation,[3],inactive: 2.77% [at 30.8 µM]
CC1(OC(=O)C2CCCC2)C(=O)C=C2C=C(c3ccsc3)N(Cc3ccco3)C=C2C1=O (centres undefined),Potency,[6],"inconclusive: 0.737 µM [inhibitor, single point]"
same,Potency,[7],"inconclusive: 2.13 µM [inhibitor, single point]"
same,Potency,[8],"inconclusive: 3.38 µM [inhibitor, single point]"
same,Potency,[2],"inconclusive: 30.1 µM [inhibitor, partial curve]"
same,activation,[3],inconclusive: 51.8% [activator]
O=C(CSc1nnc(SCc2ccccc2)s1)N/N=C/C=C\c1ccco1,Potency,[5],"inconclusive: 3.16 µM [inhibitor, full curve, poor fit]"
same,Potency,[2],active: 42.6 µM
same,Potency,[3],"inconclusive: 5.62 µM [activator, full curve, poor fit]"
COCCCNC(=O)C(C#N)c1nc2ccccc2nc1N1CCN(Cc2ccccc2)CC1 (centres undefined),"activity change, negative = inhibition",[9],inconclusive: -33.6% [inhibitor] [at 17.2 µM]
same,"activity change, negative = inhibition",[10],inconclusive: -83.3% [inhibitor] [at 17.2 µM]
same,Potency,[2],active: 75.7 µM
same,Potency,[3],inactive
COc1c(-c2ccc(O)c(O)c2)oc2cc(O)cc(O)c2c1=O,Potency,[11],inconclusive: 39.8 µM [decreasing]
same,Potency,[12],"inconclusive: 39.8 µM [inhibitor, single point]"
same,Potency,[13],inactive
same,Potency,[4],"inconclusive: 10 µM [inhibitor, partial curve]"
same,Potency,[2],"inconclusive: 19 µM [inhibitor, full curve]"
same,activation,[3],inconclusive: 45.8% [activator]
CCc1ccc(C(=O)c2cn(CC(=O)Nc3cccc(OC)c3)c3ccc(OC)cc3c2=O)cc1,Potency,[14],"inconclusive: 6.31 µM [inhibitor, full curve]"
same,Potency,[15],active: 8.44 µM
same,Potency,[16],"inconclusive: 75.7 µM [inhibitor, single point]"
same,Potency,[17],active: 4.29 µM
same,Potency,[2],active: 53.6 µM
same,Potency,[3],inactive
CCN=C1S/C(=C\c2ccc(-c3cccc(C(=O)O)c3)o2)C(=O)N1CC,Potency,[18],active: 23.8 µM
same,Potency,[2],"inconclusive: 42.6 µM [inhibitor, partial curve]"
same,Potency,[3],inactive
CCCCC1=CC2=CC(=O)C(C)(OC(=O)CCc3ccccc3)C(=O)C2=CO1 (centres undefined),Potency,[7],inactive
same,Potency,[2],"inconclusive: 50.1 µM [inhibitor, partial curve]"
same,activation,[3],inconclusive: 43.9% [activator] [at 30.8 µM]
O=C(O)c1[nH]c2ccccc2c1C(c1cc(Br)ccc1O)c1c(C(=O)O)[nH]c2ccccc12,Potency,[15],"inconclusive: 75.2 µM [inhibitor, partial curve]"
same,Potency,[16],"inconclusive: 95.3 µM [inhibitor, single point]"
same,Potency,[2],active: 39.8 µM
same,activation,[3],inconclusive: 27.5% [activator] [at 30.8 µM]
COc1ccc(/C=C2/SC(=S)N(c3ccc(S(=O)(=O)Nc4nccs4)cc3)C2=O)cc1,Potency,[15],"inconclusive: 84.4 µM [inhibitor, single point]"
same,Potency,[2],active: 33.8 µM
same,Potency,[3],"inconclusive: 1.58 µM [activator, full curve]"
